Assay results published in PubChem BioAssay AID1645887 (National Center for Advancing Translational Sciences (NCATS), 2021).
“And” between values parts separate entries of the source, which are not always exact repeats. Equal values may be shown once. Screen size: about 16,000 compounds; about 40 (0.2%) were called active. Inconclusive results (about 1%) are left out. Calls come from the whole dose curve; as a rule, active = well fitted activation curve with a large enough effect; inconclusive = small, poorly fitted or top-dose-only effect, or another doubt; inactive = no such curve, though single readings can be large or run the other way. The list shows a part of the results. Positions of bridges follow the written chain, without caps; N, C: chain ends. Non-standard residues stand in square brackets, D forms with d. Residues, ends and D or L forms follow the SMILES beside them. *: point of attachment. pGlu = O=C1CC[C@@H](C(=O)O)N1; X4 = CC[C@H](C)CCCCC(=O)*; Dab = NCC[C@H](N)C(=O)O

Each compound was assayed against Rap guanine nucleotide exchange factor 4 (Homo sapiens) (UniProt Q8WZA2) (assay: Validation qHTS for agonist of cAMP-regulated guanine nucleotide exchange factor 4 (EPAC2)). Details: EPAC2 Rap1B BODIPY-GDP exchange, fluorescence; activation: active compounds read high.
Chain of UniProt Q8WZA2 (Q8WZA2 whole entry, looked up): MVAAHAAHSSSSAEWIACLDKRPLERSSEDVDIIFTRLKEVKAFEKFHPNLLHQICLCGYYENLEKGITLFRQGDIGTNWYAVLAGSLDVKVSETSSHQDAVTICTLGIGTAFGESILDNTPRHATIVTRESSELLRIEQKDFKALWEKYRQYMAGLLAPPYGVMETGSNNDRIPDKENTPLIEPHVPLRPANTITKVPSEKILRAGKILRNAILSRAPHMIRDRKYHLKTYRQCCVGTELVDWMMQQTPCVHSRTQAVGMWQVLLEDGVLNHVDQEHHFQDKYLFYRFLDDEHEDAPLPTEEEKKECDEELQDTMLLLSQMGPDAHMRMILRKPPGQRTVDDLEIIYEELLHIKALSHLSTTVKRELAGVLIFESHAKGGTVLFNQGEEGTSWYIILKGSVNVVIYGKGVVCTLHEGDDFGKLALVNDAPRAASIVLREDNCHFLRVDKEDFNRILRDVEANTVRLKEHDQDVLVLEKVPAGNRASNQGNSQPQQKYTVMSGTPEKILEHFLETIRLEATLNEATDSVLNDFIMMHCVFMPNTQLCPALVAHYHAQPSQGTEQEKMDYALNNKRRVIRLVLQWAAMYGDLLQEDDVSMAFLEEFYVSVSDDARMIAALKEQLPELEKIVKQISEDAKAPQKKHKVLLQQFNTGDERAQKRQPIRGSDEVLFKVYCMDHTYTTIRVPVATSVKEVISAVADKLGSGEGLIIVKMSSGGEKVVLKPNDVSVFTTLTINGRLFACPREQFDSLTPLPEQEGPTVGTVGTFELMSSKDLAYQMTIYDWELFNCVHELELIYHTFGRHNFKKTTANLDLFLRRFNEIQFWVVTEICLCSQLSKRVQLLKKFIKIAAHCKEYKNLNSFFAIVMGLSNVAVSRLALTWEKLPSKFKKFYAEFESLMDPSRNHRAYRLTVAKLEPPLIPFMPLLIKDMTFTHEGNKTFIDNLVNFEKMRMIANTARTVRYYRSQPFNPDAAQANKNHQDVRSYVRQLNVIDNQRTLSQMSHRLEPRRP
Summary of the method: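 Signal normalized against 6.5 mM cAMP as agonist control. Mix of EPAC2 (100 nM), RAP1B-BODIPY-GDP (250 nM) and GDP (50 uM) was read kinetically at 480/540 nm, every 5 min over 30 min, after 5 min room-temperature incubation with compound.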
% is set by controls: 0 for no effect and ±100 for the full control effect.
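Note: exchange makes BODIPY-GDP fluorescence drop when released from Rap1B; series mostly up to about 150 µM.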

activation, inactive:
COc1cc2c(cc1OC)Cc1cc(OC)c(OC)cc1Cc1cc(OC)c(OC)cc1C2 -2.49%
CSc1ccc(C(=O)N2CCc3c(cnc(C)c3CNC(=O)c3cncs3)C2)cc1 0.251%
CCN1CCCC1=O 0.647%
CN(Cc1ccon1)C(=O)c1cnn(-c2ncc3c(n2)-c2ccccc2CCC3)c1C1CC1 -21.6%
COc1ccc(-n2c(=O)c(-c3ccc(Cl)cc3)nc3cncnc32)cc1 -6.98%
Cc1ccccc1CN1CCCOCCS1(=O)=O -20.4%
O=C(c1ccco1)N1CCC2(CCN(Cc3nccs3)CC2)CC1 -16%
COC(=O)N1CCC[C@@]2(CCN(C(=O)Nc3ccccc3)C2)C1 3.02%
CC(=O)OC1CC2C(C)(C)C(O)CCC2(C)C2CC[C@]3(C)C(=CC(=O)OC3c3ccoc3)C12C (stereo partly specified) -14.1%
O=C(O)C1=CC(O)[C@@H](O)C(O)C1 (stereo partly specified) -25.2%
CO[C@H]1[C@@H](O)[C@H](N)[C@@H](O[C@H]2O[C@H]([C@H](C)N)CC[C@H]2N)[C@H](O)[C@@H]1N(C)C(=O)CN -7.27%
CSc1ncccc1C(=O)N1CCOc2ccc(C(C)(O)CCn3cccn3)cc2C1 (stereo unspecified) -2.4%
C[N+]1(C)C2CCC1CC(OC(=O)C(O)c1ccccc1)C2 (stereo unspecified) 2.2%
CO[C@@]12C[C@@H](COC(=O)c3cncc(Br)c3)CN(C)[C@H]1Cc1cn(C)c3cccc2c13 -18.3%
COCCn1c(=O)c(-c2ccc(Cl)cc2)nc2cnc(N(C)C)nc21 -3.66%
COc1cccc(-c2ccc3ncnc(NCc4cccs4)c3c2)c1 2.95%
C[C@@H]1O[C@@H](O[C@H]2[C@H](Oc3cc(O)c4c(c3)O[C@H](c3ccc(O)cc3)CC4=O)O[C@H](CO)[C@@H](O)[C@@H]2O)[C@H](O)[C@H](O)[C@H]1O -8.86%
Cc1c(F)c(N2CCNC(C)C2)cc2c1c(=O)c(C(=O)O)cn2C1CC1 (stereo unspecified) -2.98%
Cc1cnc(CNc2ncnc3ccc(-c4ccc(C(=O)N(C)C)cc4)cc23)cn1 -13.4%
O=C(Nc1ccccc1)OCC(CN1CCCCC1)OC(=O)Nc1ccccc1 (stereo unspecified) -17.4%
Cc1c(C(=O)N2CCC(Cc3ccccc3)CC2)sc2ncnc(NCc3ccccn3)c12 4.48%
NC(=O)[C@@H]1C[C@]2(NC(=O)NC2=O)c2cc(F)ccc2O1 -12.9%
CC(C)CN(C[C@@H](O)[C@H](Cc1ccccc1)NC(=O)O[C@@H]1CCOC1)S(=O)(=O)c1ccc(N)cc1 -13.1%
Cc1ccc(/C=N/n2c(-c3ccccc3)csc2=S)cc1 -15.2%
CC(C)(C)[C@H]1CCC(=O)N([C@H](CN=[N+]=[N-])Cc2ccccc2)CC1 -42.4%
COc1cc(=O)n2c(c1C(=O)NCc1ccco1)CCN(C(=O)c1cccnc1SC)CC2 5.09%
COc1c(O)cc(O)cc1O -5.39%
CCN(CC)CC1CCCCN1CC(=O)N1c2ccccc2C(=O)Nc2cccnc21 (stereo unspecified) -6.58%
CC#CCC(C)[C@H](O)/C=C/[C@@H]1[C@H]2C/C(=C/CCCC(=O)O)C[C@H]2C[C@H]1O (stereo partly specified) -23.6%
Cc1ccccc1-c1ccc2ncnc(NCc3cccnc3)c2c1 -7.58%
CC1(C)C(=O)N(CCN2CCC(C(=O)c3ccc(F)cc3)CC2)c2ccccc21 -41.9%
COc1cc(-c2ccc(C)cc2)cc2c1OCCN(C(=O)CCn1ccc(C)n1)C2 -31.6%
CCCCCc1ccc(-c2cn(Cc3ccc4c(c3)C(=O)c3ccccc3C4=O)nn2)cc1 -12.3%
O=C(OC1C[C@H]2CC[C@@H](C1)[N+]21CCCC1)C(O)(c1ccccc1)c1ccccc1 (stereo partly specified) 2.26%
C[C@@H]1CN(Cc2ccc3c(c2)CN(Cc2nc(-c4ccccc4)cs2)CCO3)C[C@H](C)O1 1.25%
COC(=O)/C=C/c1cc(F)ccc1S(=O)(=O)Nc1ccccc1 -14.1%
COCCn1c(=O)c(-c2cc(F)cc(F)c2)nc2cnc(N3CCNCC3)nc21 -3.98%
CC(=O)N1CCC[C@H]1C(=O)NCC1Cc2cc(-c3cnccn3)cc(Cl)c2O1 (stereo partly specified) -3.25%
Cc1noc(C)c1C(=O)N1CCC[C@@]2(CCN(c3ccccc3)C2)C1 -9.53%
CCCC(=O)Nc1ccc(OCC(O)CNC(C)C)c(C(C)=O)c1 (stereo unspecified) -32.2% and -9.95%
N#CCCn1c(=O)c(-c2ccc(Cl)cc2)nc2cnc(N3CCOCC3)nc21 -0.995%
C[N+](C)(C)CCC(=O)c1cccc2ccccc12 -12.1%
CC[C@H](C)CCCCC(=O)N[C@@H](CCN)C(=O)N[C@H](C(=O)N[C@@H](CCN)C(=O)N[C@H]1CCNC(=O)[C@@H]([C@H](C)O)NC(=O)[C@H](CCN)NC(=O)[C@H](CCN)NC(=O)[C@H](CC(C)C)NC(=O)[C@@H](CC(C)C)NC(=O)[C@H](CCN)NC1=O)[C@@H](C)O (X4-[Dab]T[Dab][Dab][Dab][dL]L[Dab][Dab][dT]; lactam 4-C) -2.24%
CC[C@H](C)[C@H](NC(=O)[C@H](Cc1ccccc1)NC(=O)[C@H](C)NC(=O)[C@H](CC(=O)O)NC(=O)[C@H](CCCCN)NC(=O)[C@H](CO)NC(=O)[C@@H]1CCCN1C(=O)[C@@H]1CCC(=O)N1)C(=O)NCC(=O)N[C@@H](CC(C)C)C(=O)N[C@@H](CCSC)C(N)=O ([pGlu]PSKDAFIGLM-NH2) -13.7%
C[C@@H]1O[C@@H](OC[C@H]2O[C@@H](Oc3c(-c4ccc(O)c(O)c4)oc4cc(O)cc(O)c4c3=O)[C@H](O)[C@@H](O)[C@@H]2O)[C@H](O)[C@H](O)[C@H]1O -2.1%
COc1ccc(-c2ccnc(-n3ncc(C(=O)NCc4ccon4)c3C3CC3)n2)cc1F -5.67%
C#CCCCCCCCCCCCCCCCC(=O)O -11% and -3.01%
CC(C)C1=CC2=CC[C@H]3[C@](C)(C(=O)O)CCC[C@]3(C)C2CC1 (stereo partly specified) -26.6%
COCCNc1ccnc(-c2ccccc2C)n1 -12.6%
CO/N=C(\C(=O)N[C@@H]1C(=O)N2C(C(=O)O)=C(CSC(=O)c3ccco3)CS[C@H]12)c1csc(N)n1 -4.02%
N[C@@H]1CCN(O)C1=O -12%
CC(=O)Nc1ccc(OCC(O)CNC(C)C)cc1 (stereo unspecified) -22.5%
COc1ccc(Oc2ncc3nc(CCc4ccccc4)c(=O)n(C4CC4)c3n2)cc1 -3.86%
O=C(c1csnn1)N1CCC2(CC1)CN(c1cccc(-c3ccccc3)c1)C2 17%
COc1ccc(C(=O)N2CCC3(CCCN(c4ccc(-c5ccccc5)cc4)C3)CC2)cc1 -24.1%
CCCCCCCCCCC/C=C\C/C=C\CCCC(=O)O -13.4%
Cc1c(C)c2c(c(C)c1O)CCC(C)(CCCC(C)CCCC(C)CCCC(C)C)O2 (stereo unspecified) -51.9%
CS(=O)(=O)Nc1cccc(-c2ccc3ncnc(N4CCNCC4)c3c2)c1 -1.96%
CCNCCCNCCCCNCCCNCC -8.78%
COc1cc(C)c(Cc2cnc(N)nc2N)cc1OC 7.06%
Cc1cccc(C)c1NC(=O)CN1CCN(CCCC(c2ccc(F)cc2)c2ccc(F)cc2)CC1 -6.44%
Cc1nc(N=Nc2cc(S(=O)(=O)O)c3cc([N+](=O)[O-])cc(S(=O)(=O)O)c3c2)c(COP(=O)(O)O)c(C=O)c1O -29.7% and -12.5% and -14.4%
Cc1cccc(C2CN(C)CCc3c2cc(O)c(O)c3Cl)c1 (stereo unspecified) -20.7%
CC/C=C(\C(=O)N[C@@H]1C(=O)N2C(C(=O)OCOC(=O)C(C)(C)C)=C(COC(N)=O)CS[C@H]12)c1csc(N)n1 8.04% and -8.65%
COc1cccc2ccc(CN3CCC4(CC3)c3ccccc3[C@@H](NC(=O)c3ccccc3)[C@@H]4O)nc12 2.53%
C=CC(C)(O)CCC=C(C)C (stereo unspecified) 6.76%
Cc1ccccc1 5.62%
COc1c2c(cc3c1C(CC(O)C(C)C)N(C)CC3)OCO2 (stereo unspecified) -24.6%
CC(=O)O[C@]1(C(C)=O)CC[C@H]2[C@@H]3C=C(C)C4=CC(=O)CC[C@]4(C)[C@H]3CC[C@@]21C -10.2%
C=C1[C@H](CO)[C@@H](O)C[C@@H]1n1cnc2c(=O)[nH]c(N)nc21 -16.8%
CN(C)c1ncc2nc(-c3ccc(F)cc3)c(=O)n(Cc3cccs3)c2n1 -14.6%
CCNC(=O)NCc1cccc(Cl)c1 0.53%
Cc1nc(NCc2cccc3c2OCO3)sc1-c1ccn(CC2CCCN(C)C2)n1 (stereo unspecified) -7.2%
NC[C@H]1O[C@H](O[C@H]2[C@H](O)[C@@H](O[C@H]3O[C@H](CO)[C@@H](O)[C@H](N)[C@H]3O)[C@H](N)C[C@@H]2N)[C@H](N)[C@@H](O)[C@@H]1O -14.3% and -6.5%
CS(=O)(=O)N1CCC2(CCCN(c3cccc(-c4ccccc4)c3)C2)CC1 -0.219%
C[C@@H](CSc1ccccc1)CN1CC[C@H](C(C)(C)C)CCC1=O -31.2%
